Experimental data: patent US8530520B2, “Cycloalkyl-dione derivatives and methods of their use” (The Trustees Of The University Of Pennsylvania, priority 2011, dated 2013)

Target: T1, mouse TP receptor (Mus musculus, UniProt P30987)
T1 sequence (P30987 1-341): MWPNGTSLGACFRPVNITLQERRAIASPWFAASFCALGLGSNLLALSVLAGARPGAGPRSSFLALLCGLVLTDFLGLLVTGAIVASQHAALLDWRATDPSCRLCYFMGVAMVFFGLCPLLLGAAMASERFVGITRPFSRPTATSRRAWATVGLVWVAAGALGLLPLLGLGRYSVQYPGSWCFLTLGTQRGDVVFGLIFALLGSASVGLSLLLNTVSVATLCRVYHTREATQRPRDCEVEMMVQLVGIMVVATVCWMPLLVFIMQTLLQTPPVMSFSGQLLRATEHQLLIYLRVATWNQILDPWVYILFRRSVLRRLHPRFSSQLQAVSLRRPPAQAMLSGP
Test: TP receptor binding, scintillation proximity assay (3H-SQ29,548)
Design: expressed in transfected cells
Description: Radioligand Binding Assay. […] Data is presented as percent total binding, with total binding calculated from a minimum of three wells containing membrane, beads, and ^3H-SQ29,548 without antagonist.

[1] = membranes of QBI-HEK 293A cells expressing mouse TP receptor, 20 nM 3H-SQ29,548, 2 hours at 25° C., read-out: TP Receptor Binding Scintillation Proximity Assay Mouse TP

IC50 [1] [nM] | SMILES | IC50 [nM]
– | O=C(O)CCc1cccc(CCNS(=O)(=O)c2ccc(Cl)cc2)c1 [Compound 12, reference compound] | 26
11 | O=C1C=C(O)C(Cc2cccc(CCNS(=O)(=O)c3ccc(Cl)cc3)c2)C1 (stereo not shown) [Compound 41, 4-Chloro-N-(3-((2-hydroxy-4-oxocyclopent-2-en-1-yl)methyl)phenethyl)benzenesulfonamide] | –
26 | CC1=C(O)C(Cc2cccc(CCNS(=O)(=O)c3ccc(Cl)cc3)c2)CC1=O (stereo not shown) [Compound 42, 4-Chloro-N-(3-((2-hydroxy-3-methyl-4-oxocyclopent-2-en-1-yl)methyl)phenethyl)-benzenesulfonamide] | –
> 10000 | O=S(=O)(NCCc1cccc(CCCO)c1)c1ccc(Cl)cc1 [Compound 59] | –
19 | O=S(=O)(NCCc1cccc(CCc2nnn[nH]2)c1)c1ccc(Cl)cc1 [Compound 60] | –
17 | O=c1c(O)c(NCc2cccc(CCNS(=O)(=O)c3ccc(Cl)cc3)c2)c1=O [Compound 61] | –

SMILES | IC50 [1] [nM] | IC50 [nM]
O=C1CCC(O)=C1Cc1cccc(CCNS(=O)(=O)c2ccc(Cl)cc2)c1 [Compound 50, 4-Chloro-N-(3-((2-hydroxy-5-oxocyclopent-1-en-1-yl)methyl)phenethyl)benzenesulfonamide] | 1200 | –

Read-outs that look alike come from different tables or passages of the source.
